Data reported in paper PMC8115599, “Mechanism of MRX inhibition by Rif2 at telomeres” (Nature Communications, 2021).
These are yes or no findings as the source states them, for the method shown. Some entries that bind do so weakly or less than the wild type.

T1: Gal4DBD-Rif2_(1-60) (Rif2 N-terminal region 1-60) (S. cerevisiae) (UniProt Q06208)
T1 sequence: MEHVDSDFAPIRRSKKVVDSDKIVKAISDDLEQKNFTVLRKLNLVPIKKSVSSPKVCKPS

T2: Gal4DBD-Rif2_(1-60) F8A (S. cerevisiae) (UniProt Q06208)
T2 sequence: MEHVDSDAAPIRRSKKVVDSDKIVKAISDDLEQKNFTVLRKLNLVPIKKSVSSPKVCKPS

T3: Gal4DBD-Rif2_(1-60) L44A (S. cerevisiae) (UniProt Q06208)
T3 sequence: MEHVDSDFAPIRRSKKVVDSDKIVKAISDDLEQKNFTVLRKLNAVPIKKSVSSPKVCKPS

T4: Gal4DBD-Rif2_(1-60) R12A (S. cerevisiae) (UniProt Q06208)
T4 sequence: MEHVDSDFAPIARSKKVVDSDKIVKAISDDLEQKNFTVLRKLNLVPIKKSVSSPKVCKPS

T5: Gal4DBD-Rif2_(1-36) (Rif2 BAT motif) (S. cerevisiae) (UniProt Q06208)
T5 sequence: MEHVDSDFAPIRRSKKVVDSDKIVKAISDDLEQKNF

T6: full-length Mre11 (S. cerevisiae) (UniProt P32829)
T6 sequence: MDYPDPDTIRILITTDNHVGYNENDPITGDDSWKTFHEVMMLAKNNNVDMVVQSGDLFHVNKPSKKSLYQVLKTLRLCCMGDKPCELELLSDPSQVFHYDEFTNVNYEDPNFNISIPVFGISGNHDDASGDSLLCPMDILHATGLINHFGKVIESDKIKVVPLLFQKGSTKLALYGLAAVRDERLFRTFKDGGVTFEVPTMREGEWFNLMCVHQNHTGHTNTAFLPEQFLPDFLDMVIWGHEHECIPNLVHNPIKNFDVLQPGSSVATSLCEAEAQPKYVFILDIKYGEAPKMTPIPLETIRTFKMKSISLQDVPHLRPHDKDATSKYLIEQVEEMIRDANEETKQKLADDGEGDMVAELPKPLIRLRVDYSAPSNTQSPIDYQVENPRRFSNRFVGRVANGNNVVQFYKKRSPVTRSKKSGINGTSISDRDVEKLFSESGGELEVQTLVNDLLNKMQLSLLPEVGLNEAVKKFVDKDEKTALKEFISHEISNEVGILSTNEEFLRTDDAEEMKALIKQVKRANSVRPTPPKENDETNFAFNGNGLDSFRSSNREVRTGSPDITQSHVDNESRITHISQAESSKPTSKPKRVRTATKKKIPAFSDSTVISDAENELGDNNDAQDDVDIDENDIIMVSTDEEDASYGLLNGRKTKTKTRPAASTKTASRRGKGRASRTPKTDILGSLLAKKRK

B1: Rap1 (fragment 366–827) (domain or fragment, UniProt P11938 366-827)
chain: EEDEFILDVVRKNPTRRTTHTLYDEISHYVPNHTGNSIRHRFRVYLSKRLEYVYEVDKFGKLVRDDDGNLIKTKVLPPSIKRKFSADEDYTLAIAVKKQFYRDLFQIDPDTGRSLITDEDTPTAIARRNMTMDPNHVPGSEPNFAAYRTQSRRGPIAREFFKHFAEEHAAHTENAWRDRFRKFLLAYGIDDYISYYEAEKAQNREPEPMKNLTNRPKRPGVPTPGNYNSAAKRARNYSSQRNVQPTANAASANAAAAAAAAASNSYAIPENELLDEDTMNFISSLKNDLSNISNSLPFEYPHEIAEAIRSDFSNEDIYDNIDPDTISFPPKIATTDLFLPLFFHFGSTRQFMDKLHEVISGDYEPSQAEKLVQDLCDETGIRKNFSTSILTCLSGDLMVFPRYFLNMFKDNVNPPPNVPGIWTHDDDESLKSNDQEQIRKLVKKHGTGRMEMRKRFFEKDLL
B2: Rad50∆CC (Rad50_(1–189-KILCY-1125-1312)), two-hybrid clone (domain or fragment, UniProt P12753 1-189; P12753 1125-1312)
chain: MSAIYKLSIQGIRSFDSNDRETIEFGKPLTLIVGMNGSGKTTIIECLKYATTGDLPPNSKGGVFIHDPKITGEKDIRAQVKLAFTSANGLNMIVTRNIQLLMKKTTTTFKTLEGQLVAINNSGDRSTLSTRSLELDAQVPLYLGVPKAILEYVIFCHQEDSLWPLSEPSNLKKKFDEIFQAMKFTKALDKILCYDDIDVYSKALDSAIMKYHGLKMQDINRIIDELWKRTYSGTDIDTIKIRSDEVSSTVKGKSYNYRVVMYKQDVELDMRGRCSAGQKVLASIIIRLALSETFGANCGVIALDEPTTNLDEENIESLAKSLHNIINMRRHQKNFQLIVITHDEKFLGHMNAAAFTDHFFKVKRDDRQKSQIEWVDINRVTY
B3: mutant full-length Rad50 S8L (protein, UniProt P12753 1-1312)
chain: MSAIYKLLIQGIRSFDSNDRETIEFGKPLTLIVGMNGSGKTTIIECLKYATTGDLPPNSKGGVFIHDPKITGEKDIRAQVKLAFTSANGLNMIVTRNIQLLMKKTTTTFKTLEGQLVAINNSGDRSTLSTRSLELDAQVPLYLGVPKAILEYVIFCHQEDSLWPLSEPSNLKKKFDEIFQAMKFTKALDNLKSIKKDMSVDIKLLKQSVEHLKLDKDRSKAMKLNIHQLQTKIDQYNEEVSEIESQLNEITEKSDKLFKSNQDFQKILSKVENLKNTKLSISDQVKRLSNSIDILDLSKPDLQNLLANFSKVLMDKNNQLRDLETDISSLKDRQSSLQSLSNSLIRRQGELEAGKETYEKNRNHLSSLKEAFQHKFQGLSNIENSDMAQVNHEMSQFKAFISQDLTDTIDQFAKDIQLKETNLSDLIKSITVDSQNLEYNKKDRSKLIHDSEELAEKLKSFKSLSTQDSLNHELENLKTYKEKLQSWESENIIPKLNQKIEEKNNEMIILENQIEKFQDRIMKTNQQADLYAKLGLIKKSINTKLDELQKITEKLQNDSRIRQVFPLTQEFQRADLEMDFQKLFINMQKNIAINNKKMHELDRRYTNALYNLNTIEKDLQDNQKSKEKVIQLLSENLPEDCTIDEYNDVLEETELSYKTALENLKMHQTTLEFNRKALEIAERDSCCYLCSRKFENESFKSKLLQELKTKTDANFEKTLKDTVQNEKEYLHSLRLLEKHIITLNSINEKIDNSQKCLEKAKEETKTSKSKLDELEVDSTKLKDEKELAESEIRPLIEKFTYLEKELKDLENSSKTISEELSIYNTSEDGIQTVDELRDQQRKMNDSLRELRKTISDLQMEKDEKVRENSRMINLIKEKELTVSEIESSLTQKQNIDDSIRSKRENINDIDSRVKELEARIISLKNKKDEAQSVLDKVKNERDIQVRNKQKTVADINRLIDRFQTIYNEVVDFEAKGFDELQTTIKELELNKAQMLELKEQLDLKSNEVNEEKRKLADSNNEEKNLKQNLELIELKSQLQHIESEISRLDVQNAEAERDKYQEESLRLRTRFEKLSSENAGKLGEMKQLQNQIDSLTHQLRTDYKDIEKNYHKEWVELQTRSFVTDDIDVYSKALDSAIMKYHGLKMQDINRIIDELWKRTYSGTDIDTIKIRSDEVSSTVKGKSYNYRVVMYKQDVELDMRGRCSAGQKVLASIIIRLALSETFGANCGVIALDEPTTNLDEENIESLAKSLHNIINMRRHQKNFQLIVITHDEKFLGHMNAAAFTDHFFKVKRDDRQKSQIEWVDINRVTY
B4: mutant full-length Rad50 T95L (protein, UniProt P12753 1-1312)
chain: MSAIYKLSIQGIRSFDSNDRETIEFGKPLTLIVGMNGSGKTTIIECLKYATTGDLPPNSKGGVFIHDPKITGEKDIRAQVKLAFTSANGLNMIVLRNIQLLMKKTTTTFKTLEGQLVAINNSGDRSTLSTRSLELDAQVPLYLGVPKAILEYVIFCHQEDSLWPLSEPSNLKKKFDEIFQAMKFTKALDNLKSIKKDMSVDIKLLKQSVEHLKLDKDRSKAMKLNIHQLQTKIDQYNEEVSEIESQLNEITEKSDKLFKSNQDFQKILSKVENLKNTKLSISDQVKRLSNSIDILDLSKPDLQNLLANFSKVLMDKNNQLRDLETDISSLKDRQSSLQSLSNSLIRRQGELEAGKETYEKNRNHLSSLKEAFQHKFQGLSNIENSDMAQVNHEMSQFKAFISQDLTDTIDQFAKDIQLKETNLSDLIKSITVDSQNLEYNKKDRSKLIHDSEELAEKLKSFKSLSTQDSLNHELENLKTYKEKLQSWESENIIPKLNQKIEEKNNEMIILENQIEKFQDRIMKTNQQADLYAKLGLIKKSINTKLDELQKITEKLQNDSRIRQVFPLTQEFQRADLEMDFQKLFINMQKNIAINNKKMHELDRRYTNALYNLNTIEKDLQDNQKSKEKVIQLLSENLPEDCTIDEYNDVLEETELSYKTALENLKMHQTTLEFNRKALEIAERDSCCYLCSRKFENESFKSKLLQELKTKTDANFEKTLKDTVQNEKEYLHSLRLLEKHIITLNSINEKIDNSQKCLEKAKEETKTSKSKLDELEVDSTKLKDEKELAESEIRPLIEKFTYLEKELKDLENSSKTISEELSIYNTSEDGIQTVDELRDQQRKMNDSLRELRKTISDLQMEKDEKVRENSRMINLIKEKELTVSEIESSLTQKQNIDDSIRSKRENINDIDSRVKELEARIISLKNKKDEAQSVLDKVKNERDIQVRNKQKTVADINRLIDRFQTIYNEVVDFEAKGFDELQTTIKELELNKAQMLELKEQLDLKSNEVNEEKRKLADSNNEEKNLKQNLELIELKSQLQHIESEISRLDVQNAEAERDKYQEESLRLRTRFEKLSSENAGKLGEMKQLQNQIDSLTHQLRTDYKDIEKNYHKEWVELQTRSFVTDDIDVYSKALDSAIMKYHGLKMQDINRIIDELWKRTYSGTDIDTIKIRSDEVSSTVKGKSYNYRVVMYKQDVELDMRGRCSAGQKVLASIIIRLALSETFGANCGVIALDEPTTNLDEENIESLAKSLHNIINMRRHQKNFQLIVITHDEKFLGHMNAAAFTDHFFKVKRDDRQKSQIEWVDINRVTY

Assays:
Test in all cases: two-hybrid; strain Y190, growth on synthetic glucose plates with adenine and 3-AT (25 and 50 mM); Gal4DBD-Rif2 fragments against pACT2-RAD50 and its derivatives, Rap1 366-827 or Mre11; WT cells, also cells lacking Mre11 and Xrs2 or the endogenous Rad50
[1] = target: T1, Gal4DBD-Rif2_(1-60) (Rif2 N-terminal region 1-60) (S. cerevisiae)
[2] = target: T2, Gal4DBD-Rif2_(1-60) F8A (S. cerevisiae)
[3] = target: T3, Gal4DBD-Rif2_(1-60) L44A (S. cerevisiae)
[4] = target: T4, Gal4DBD-Rif2_(1-60) R12A (S. cerevisiae)
[5] = target: T5, Gal4DBD-Rif2_(1-36) (Rif2 BAT motif) (S. cerevisiae)
[6] = target: T6, full-length Mre11 (S. cerevisiae)

binding [1] | binding [2] | binding [3] | binding [4] | binding [5] | binding [6] | Binder
binds | binds | no binding | binds |  |  | B1
 |  |  |  | binds |  | B2
 |  |  |  | binds | binds | B3
 |  |  |  | binds | binds | B4
